# Measurements: patent publication US11542275B2, “Substituted imidazolidin-2-one derivatives as PRMT5 inhibitors” (Aurigene Discovery Technologies Limited, priority 2018, dated 2023)
# Target: PRMT5/MEP50 Complex (Homo sapiens (Human), UniProt O14744)
# Assay: PRMT5 inhibition based on TR-FRET assay
# Format: biochemical
# Details: 32 nM PRMT5:MEP50 complex, 50 nM Histone-H4 peptide, 1 μM SAM, 90 minutes at room temperature
# Excerpt: Protein arginine methyltransferase 5 (PRMT5) is a type II arginine methyltransferase that catalyze mono- and symmetric demethylation on arginine residues of histone or non-histone proteins in presence of S-adenosylmethionine (AdoMet or SAM) a cofactor responsible for donating the methyl group. PRMT5 is reported to be overexpressed in several human cancers. To identify compounds that inhibit the PRMT5 and decrease its activity, a TR-FRET based assay has been established. Time-resolved fluorescence resonance energy transfer (TR-FRET) HTS assays are homogeneous proximity assays where the interaction of two dye-labeled binding partners is detected by the energy transfer between a donor and an acceptor dye, and the subsequent light emission by the acceptor dye. PRMT5 catalyzes Histone H4 peptide which is biotin tagged to the Lysine amino acid at carboxyl end, in presence of S-adenosyl-1-methionine (SAM) to methylate the peptide. The antibody specific to mono methylated H4 peptide (H4R3) with Ig conjugate binds to the methylated peptide, indirectly binding to the Europium lanthanide. SureLight Allophycocyanin-Streptavidin binds to the biotin tag of the peptide, therefore accepting the energy transferred from the Europium lanthanide. This energy transfer between Europium to SureLight Allophycocyanin is a direct measure of the activity/inhibition of the PRMT5 enzyme.
# Assay buffer: 20 mM BICINE (pH 7.6), 25 mM NaCl, 2 mM DTT, 0.01% Tween-20 and 0.01% BSA.
# The compound dilutions were prepared as 7.5% DMSO stock solutions in assay buffer. To 2 μL (7.5×) of test compound, 5 μL of PRMT5 enzyme prepared in assay buffer (Final concentration of 32 nM in 15 μL reaction volume) was added and allowed for 30 minutes pre-incubation time in a white polystyrene 384-well plate at room temperature. […] The plates were then read on Victor-3 with Excitation at 340 nm and Emissions collected at 615 and 665 nm in TR-FRET protocol. […]
row,IC50 [µM],SMILES
1,0.018,"CC(=O)N1CCC(c2ccc(CN3CCN(C[C@@H](O)CN4CCc5ccccc5C4)C3=O)nc2)CC1 [Compound 45, (S)-1-((5-(1-acetylpiperidin-4-yl)pyridin-2-yl)methyl)-3-(3-(3,4-dihydroisoquinolin-2(1H)-yl)-2-hydroxypropyl)imidazolidin-2-one]"
2,0.037,"CC(=O)N1CCN(c2ccc(CN3CCN(C[C@H](O)CN4CCc5ccccc5C4)C3=O)nc2)C(C)C1 (stereo partly drawn) [Compound 21, 1-((5-(4-acetyl-2-methylpiperazin-1-yl)pyridin-2-yl)methyl)-3-((R)-3-(3,4-dihydroisoquinolin-2(1H)-yl)-2-hydroxypropyl)imidazolidin-2-one]"

row,SMILES,IC50 [µM]
1,"O=C1N(Cc2ccc(N3C4COCC3C4)cn2)CCN1C[C@H](O)CN1CCc2ccccc2C1 [Compound 29, 1-((5-(3-oxa-6-azabicyclo[3.1.1]heptan-6-yl)pyridin-2-yl)methyl)-3-((R)-3-(3,4-dihydroisoquinolin-2(1H)-yl)-2-hydroxypropyl)imidazolidin-2-one]",0.163
